Data published in patent US20230381229A1 (ALPINE IMMUNE SCIENCES, INC., published 2023).
Positions count from the first letter of the chain named. Numbers in names are those of the source. Blank lines part the entries; values can stand above or below the binder they belong to.

Biological target: PD-1 (human)
Experiment: cell-based or functional assay

- IFN gamma levels pg/ml (MLR): 1740 pg/mL
B1: PD-L2 IgV-Fc I13V, H15Q, T47A, Q82R, V89D (SEQ 725) (Fc fusion)
chain: LFTVTVPKELYIVEQGSNVTLECDFDTGSHVNLGAITASLQKVENDTSPHRERATLLEEQLPLGKASFHIPQVQVRDEGQYRCIIIYGDAWDYKYLTLKVKAAAA[sequence of human IgG1 Fc with C220S R292C N297G V302C (EU numbers) not given]

- IFN gamma levels pg/ml (MLR): 836 pg/mL
B2: PD-L2 IgV-Fc I13V, H15Q, T47A, E58G, S67L, Q82R, V89D (Fc fusion)
chain: B1 chain with D24N, T47A, E58G, S67L
